According to the supplement of paper PMC10126150:
Sequences with one replicate were seen in a single cluster, so their values are uncertain.

Tested on: ATP
Test: switch fluorescence ratio, 500 uM ATP over buffer (Cy3 cluster intensity, sum of 5 cycles each) (fold (ratio)); higher = stronger signal-on switching upon ATP binding; sequences stand for … in TCGTCGGCAGCGTCAGATGTGTATAAGAGACAGTTTTTTTTTTTTTTTTTTTTTTTTT…TC
Conditions: aptamer strand: ATP DNA aptamer (quencher-CACCTGGGGGAGTATTGCGGAGGAAGG + anchor), 100 nM annealed; ATP concentration: 500 uM; one replicate
Outline: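 Between each of five buffer/ATP cycles, the flow-cell was stripped with NaOH and re-annealed. Each cycle imaged Cy3-labelled switching-strand clusters, annealed to 100 nM quencher-labelled ATP aptamer on a modified Illumina MiSeq flow-cell, first in selection buffer and then after 15 min with 500 uM ATP at 22 °C. The fluorescence ratio is summed target-cycle over summed buffer-cycle Cy3 intensity per cluster, averaged per switch-domain sequence, with clusters outside 100-1000 RFU excluded.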
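Further: ATP exposure 15 min at 22 °C before imaging.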

Sequence | switch fluorescence ratio
GATCAAAGAT | 0.974
CGAGCTGTCC | 1.1
AGCCTGACCC | 1.24
GGCTCAGAGC | 1.01
AAAGTGATTC | 1.02
AAGAATTAAA | 1.01
TGCGCCTGTA | 1.13
TGTCAATTAA | 1.05
TTGACGTACC | 2.08
CATTGAAAGC | 0.977
ATTAAAACAC | 1.12
GCATCTCATT | 1
CAGCGCTAAT | 1.06
TATCATCTAT | 1.02
TCGCTCCAAT | 1.08
CAGTTTGGCT | 0.968
TTGGTGGAGC | 1.05
GAGTTGAGAA | 0.993
GCCAGCTTGT | 0.98
TGAAGGACAT | 1.02
TTACTGAGCG | 1
TACATGGCTT | 1
ATAACGACTT | 1.03
GATAATCAAT | 0.953
TTTAACTTC | 1.04
GTATCTGTGA | 0.99

Sequence | switch fluorescence ratio
CGGATCATTC | 0.986
TAATACTTGG | 1.05
TGATGGTCTT | 1.02
GCCCTTTAAG | 0.978
CAGCAGTACA | 2.85
ATGCAGAAAG | 0.998
TTCTTGCAAG | 0.957
GAGGTTACAC | 1
TTCCTTATAG | 0.958
TGTGAGTGAA | 1.02
TTTTCCGATT | 0.96
TAGGTTGGGA | 1.02
ATCTGAGCGA | 1.02
ACCGCCTCTA | 1.2
CTGCATCGGG | 1.03
CCTAGGTTAG | 1.05
TAAGCATCGA | 1.05
ACGTAGGATC | 1.04
CCTGAAATGA | 1.07
ATTGGACGA | 0.992
CCTGTGGCCA | 1.01
ACCGAAATTT | 1
GCTAGAACGC | 0.975
GCACATTGT | 1.09
TATGGAGCG | 0.907
CCAGATACTG | 1.09

Sequence | switch fluorescence ratio
AACTAGCGAC | 1.11
GGTTATAAGC | 0.976
ATTTTAGATA | 0.974
CGAGCGGCCG | 1.05
GCAGTCGGCC | 1.01
TGGGATGTT | 1.01
TATGCCAGAC | 1.08
GGGAGTTTGC | 0.969
CGGGGCGGGT | 1.05
ACTCCTGTGA | 1.3
AGAACCCTGT | 0.984
ACGGGGTTCG | 0.993
GAATAAGGCG | 1.05
CAGGTACGG | 1
ACGGTACATT | 1.34
GTAGTAAGTG | 1.07
ATCTCGAGGT | 0.962
TCGAAGACTG | 0.874
ATGAGGGATA | 1.05
GATGCGTAG | 1.02
CATTCCCCAT | 1.06
CAAATGTTA | 0.999
GGTGGAGGGC | 1.01
TCCGTTTCGT | 1
TTCGTACAAA | 0.993
GGACAAGCGC | 1.02

Sequence | switch fluorescence ratio
GCACCTGTTG | 1.04
TCTTTAGGTA | 0.981
AGGAGAAAAC | 0.976
AGCTCACTGG | 1.06
GCTATCGTCT | 1.01
GATACCAAGA | 1
AAGAATGGTA | 1.02
TATTTTACGG | 1.01
AACCGTGAGT | 0.967
AGGATCACTC | 1
TCATATTGTA | 1
ATATTTTGCG | 1.03
CCCACATGGT | 2.31
GTGCTGGGAA | 0.992
AAAAGCCTGG | 1.05
GAATAGGGAT | 1.04
TAAAGGTCTC | 1
TGGTTCCGTG | 1.12
GCTCTGCTCG | 1
TCGCAACCTA | 1.51
GGGAGGACGG | 1.02
TAGGACCGGT | 1.05
GGTGTGGG | 1.1
CAGTTTGGAA | 1
TGGCCCGG | 0.995
TGCGTTCGGG | 0.91

Sequence | switch fluorescence ratio
AGTAGTCACA | 1
GCGTCCGTTT | 0.979
GATTAGAATT | 0.999
GCGATAAAGA | 0.979
GGGGCCAGCG | 1.1
GCGGGTTA | 0.945
TGTGAATTAG | 0.992
GTTGAGGTTA | 0.968
GAACAAGTGC | 1.11
CATCCTTAAA | 1.12
CGGGCCCCTG | 1.02
CATAGCGTAG | 0.942
AGGACCTGAA | 1.07
CAGCTTTTT | 0.965
GCTATTGCTG | 0.97
TAATCATGCA | 0.979
TGTCTCCGGA | 1.05
GTGCTAGGTG | 1.71
GCACTGAAAC | 1.33
GGGGGTCATA | 0.964
ACGTTACACT | 1.49
CGTAATCTTC | 1.02
CTTCCCTCAG | 1.54
TTGGCGGTTC | 1.04
GTTTATCCTG | 0.971
AGCCTCATTG | 1.01

Sequence | switch fluorescence ratio
AGTTTTCGA | 0.995
GGATAGACAG | 0.992
TCGAGCGAAA | 1.04
ATCCTATAAG | 1.02
ATATCACGGA | 1.05
GGGTTACTG | 1.03
TTCGCGTACA | 1
GCGACTTTTA | 0.975
TGATGTCAGG | 1.04
GACAAAGCGC | 1.04
AAGCGAATCT | 1.03
CAATATCTCT | 1.05
TCGGCACCTG | 0.975
GTAGTGTCAT | 0.951
TGGGCTATTA | 1.04
ACCGTTCTCG | 1.06
TCAAAAGCTC | 1.07
TCCGCCGTGT | 1.12
ACTTGACGCA | 1.07
AGCTGATCAC | 1.09
GCATAAAAGC | 0.997
GATAGTTC | 0.979
ATGATACAGA | 1.08
ACTCTAATGG | 1.06
GGGCCAACTA | 0.984
TCTGATGGTT | 0.972

Sequence | switch fluorescence ratio
TTGGTTGGA | 1
CGTAGTGCGG | 1.05
GTATATGTGG | 1.07
GGTAGTGACG | 1.04
GTGGAAGGGA | 0.984
AAGCTTGTAC | 1.8
GCGTTACAGG | 1.02
TTAAATGAAC | 1.07
AGTGGAAGGC | 1.04
CCTGCAGGTT | 3.71
GAGGTGGCTG | 0.987
TTTGCTATTG | 1.11
ACTCAATAGC | 1.43
ACTACAAGT | 1.03
TGTTCGCCAG | 0.945
GCGTTGCGTA | 1.01
AAAACGGGCA | 0.974
GTCGCGCTGC | 0.886
CGGATCACGC | 0.952
GTCATGGTCG | 0.787
GCAGGCAAG | 1.06
TCGGACGGCC | 1.03
CAGTGCACGG | 0.956
CCATGTATTG | 0.963
GCCGGACCGA | 1.01
TAGGATCTTG | 0.984

Sequence | switch fluorescence ratio
CATCATATTT | 0.985
TTCGGCCTTT | 0.975
ACATCCACTA | 1.2
TCAGCGTTC | 1.07
ATTTGCGGTA | 1.02
TATATAGTGC | 0.946
TGTTTGCAGG | 1
TGGATAGGTT | 1.01
GTTGATCGTC | 0.98
TTGTCGGAT | 1
ATCCGTTTCA | 0.995
CCACATCGAC | 1.39
TGTCCAACTC | 1.27
GGGTCAAATT | 0.953
GAATCGAAAA | 1.04
TCCGAACAAA | 0.989
CGGGAGAAGG | 1.09
TATAACTGGG | 0.953
GGGGAACGCA | 1.17
